{"source": "the supplement of paper PMC3334620", "note": "Whole data set: some 33,000 sequences, median “E-score (-0.5 to 0.5)” near -0.056, cut for the highest 2% near 0.38. Some of the results follow.", "data": [{"biological_target": "Stb4 (UniProt P50104)", "experiment": "PBM E-score (8-mer binding enrichment) (E-score (-0.5 to 0.5)); higher = stronger / more preferred TF binding; most listed sequences are background and not binding sites", "details": "protein concentration: 200 nM; construct: GST-DNA-binding domain", "method_in_brief": "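GST-tagged yeast TFs (full-length or DNA-binding domain) were made by PURExpress in vitro transcription/translation and applied at about 100-200 nM to universal all-10-mer Agilent arrays. The arrays were made double-stranded by primer extension, on fresh or once-stripped slides. Bound protein was detected with fluorescent anti-GST, and scans were normalised with masliner. Each ungapped eight-base word, pooled with its reverse complement, received an E-score (modified Wilcoxon-Mann-Whitney statistic) from the Universal PBM Analysis Suite.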", "values": [{"sequence": "AATTACCT", "PBM E-score": -0.14}, {"sequence": "CTTAGCTC", "PBM E-score": -0.0849}, {"sequence": "GGGCATTA", "PBM E-score": -0.0753}, {"sequence": "GCTCACTA", "PBM E-score": -0.134}, {"sequence": "CTTCCATA", "PBM E-score": -0.122}, {"sequence": "CAGGAAGG", "PBM E-score": -0.208}, {"sequence": "CAGGTAGA", "PBM E-score": -0.135}, {"sequence": "ACCCCAGT", "PBM E-score": -0.174}, {"sequence": "AGATGATG", "PBM E-score": -0.0541}, {"sequence": "GTCGTTTA", "PBM E-score": -0.034}, {"sequence": "GGGGGGCA", "PBM E-score": -0.256}, {"sequence": "GGCCGTTA", "PBM E-score": 0.17}, {"sequence": "GGCTAGCC", "PBM E-score": 0.0852}, {"sequence": "AGTTAACG", "PBM E-score": -0.0609}, {"sequence": "ACGGGCTG", "PBM E-score": -0.109}, {"sequence": "TGACCCCA", "PBM E-score": -0.0526}, {"sequence": "CAGTCTAA", "PBM E-score": -0.0962}, {"sequence": "TCGGTAGA", "PBM E-score": 0.363}, {"sequence": "CGCGGTTC", "PBM E-score": 0.115}, {"sequence": "TAAGCGTA", "PBM E-score": -0.172}, {"sequence": "GAGGCACA", "PBM E-score": -0.0729}, {"sequence": "AGGAGGCG", "PBM E-score": -0.149}, {"sequence": "ACTTGTAC", "PBM E-score": -0.117}, {"sequence": "CCTCTTCC", "PBM E-score": 0.0657}, {"sequence": "ATGGTAGC", "PBM E-score": 0.00743}, {"sequence": "GACGAACC", "PBM E-score": 0.0535}, {"sequence": "TACCCTCA", "PBM E-score": -0.153}, {"sequence": "GCCCAGTA", "PBM E-score": -0.0725}, {"sequence": "AGGGGCTC", "PBM E-score": -0.194}, {"sequence": "CCAGCGCA", "PBM E-score": -0.138}, {"sequence": "GTTACAAA", "PBM E-score": -0.00155}, {"sequence": "AAGGTACC", "PBM E-score": 0.0589}, {"sequence": "ACCCGTAG", "PBM E-score": 0.13}, {"sequence": "ACAACCTC", "PBM E-score": -0.114}, {"sequence": "CGCTTATC", "PBM E-score": -0.0429}, {"sequence": "CAGGGGCG", "PBM E-score": -0.182}, {"sequence": "ATCGCAAG", "PBM E-score": -0.109}, {"sequence": "AACGACCT", "PBM E-score": -0.0159}, {"sequence": "CATTGCGG", "PBM E-score": 0.129}, {"sequence": "CTGTGTGA", "PBM E-score": -0.051}, {"sequence": "GCGTGTGA", "PBM E-score": -0.207}, {"sequence": "TTCATGAA", "PBM E-score": -0.162}, {"sequence": "AGCCTGCA", "PBM E-score": -0.0179}, {"sequence": "CTATATAG", "PBM E-score": -0.279}, {"sequence": "ATTGCCGA", "PBM E-score": 0.451}, {"sequence": "AGAATGGA", "PBM E-score": -0.0768}, {"sequence": "CTTCCCCA", "PBM E-score": -0.178}, {"sequence": "CCAATTTA", "PBM E-score": 0.0809}, {"sequence": "CCAGTAAC", "PBM E-score": 0.0754}, {"sequence": "AACGCCTC", "PBM E-score": -0.151}, {"sequence": "GGTGTACA", "PBM E-score": -0.145}, {"sequence": "CTAAAGTA", "PBM E-score": -0.235}, {"sequence": "GCCCCGAA", "PBM E-score": 0.31}, {"sequence": "CAGCTCTA", "PBM E-score": -0.128}, {"sequence": "CTATGATA", "PBM E-score": -0.0468}, {"sequence": "AAGTTCCG", "PBM E-score": 0.434}, {"sequence": "GTGCAGGA", "PBM E-score": -0.18}, {"sequence": "AAACGGGA", "PBM E-score": 0.246}, {"sequence": "AAAAATCG", "PBM E-score": 0.0452}, {"sequence": "AAGCTCCT", "PBM E-score": -0.188}, {"sequence": "ACTTCTTA", "PBM E-score": -0.0853}, {"sequence": "TACTGAGA", "PBM E-score": -0.123}, {"sequence": "CAGCGCGA", "PBM E-score": -0.265}, {"sequence": "GGTCTCTA", "PBM E-score": -0.0978}, {"sequence": "AGCATAGC", "PBM E-score": -0.364}, {"sequence": "CGCTACCG", "PBM E-score": 0.177}, {"sequence": "AGCGATCA", "PBM E-score": -0.156}, {"sequence": "GGAGTAAC", "PBM E-score": 0.0827}, {"sequence": "GCATCCCA", "PBM E-score": -0.0683}, {"sequence": "GGTTGGTA", "PBM E-score": "1e-05"}, {"sequence": "AAAGCAGG", "PBM E-score": 0.047}, {"sequence": "TGCCGGCA", "PBM E-score": 0.296}, {"sequence": "CATGGGGG", "PBM E-score": -0.23}, {"sequence": "ACGCCAGT", "PBM E-score": -0.0635}, {"sequence": "ACCAACTC", "PBM E-score": -0.209}, {"sequence": "CCAGAAAC", "PBM E-score": -0.0188}, {"sequence": "AGTCTAAA", "PBM E-score": -0.0902}, {"sequence": "CTTATACC", "PBM E-score": 0.0291}, {"sequence": "CTTCCGAC", "PBM E-score": 0.457}, {"sequence": "GGGGCCCC", "PBM E-score": 0.0542}, {"sequence": "GTTTCGTA", "PBM E-score": 0.128}, {"sequence": "CTTGTGGC", "PBM E-score": -0.0925}, {"sequence": "ATTATAAT", "PBM E-score": 0.0674}, {"sequence": "CACTTAAC", "PBM E-score": -0.105}, {"sequence": "ACCTCCGT", "PBM E-score": 0.0596}, {"sequence": "GTACGTTA", "PBM E-score": 0.0456}]}]}
